{
  "source": "the supplement of paper PMC8728848",
  "binders": {"B1": {"name": "PpFlo1 (Pichia pastoris) (protein)", "chain": "MGSSHHHHHHSSGLVPRGSHMQESGDGDISDSAYACDIDATRYDGFNATIYEFQPGDGRLTRDPVFMSTGYLNRTQLHSITGVTDPGFSIYTPGVPTTTLYGIPNVNWENLLLELKGYFRAEVSGDYGLSLRNIDDSAILFFGKETAFQCCNENSISNEASTDYSLFTIFRQEGDETTNLDSFTYTQYLEAGKYYPVRTFFVNIERHAVFNFTMTLPDGTELTDFHNYIYQFGALDEEQCQA"}},
  "experiment_in_all_cases": "glycan array binding signal (z-score within array); higher = stronger binding",
  "details_in_all_cases": "glycan notation: IUPAC condensed, linker removed",
  "key": {"[1]": {"target": "Fuc(a1-2)[GalNAc(a1-3)]Gal(b1-3)GalNAc(b1-3)Gal(a1-4)Gal(b1-4)Glc", "outline": "(§1)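 Negative Z-scores can be read as non-binding. The Z-score is calculated within each array and then averaged across arrays of one protein sequence at different concentrations or buffers and across linkers. Arrays, 3228 in all, were curated from the Consortium for Functional Glycomics database and kept only where the protein sequence was available.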"}, "[2]": {"target": "Fuc(a1-2)[GalNAc(a1-3)]Gal(b1-3)GlcNAc", "outline": "as §1"}, "[3]": {"target": "Fuc(a1-2)[GalNAc(a1-3)]Gal(b1-3)GlcNAc(b1-2)Man(a1-3)[Fuc(a1-2)[GalNAc(a1-3)]Gal(b1-3)GlcNAc(b1-2)Man(a1-6)]Man(b1-4)GlcNAc(b1-4)GlcNAc", "outline": "as §1"}, "[4]": {"target": "Fuc(a1-2)[GalNAc(a1-3)]Gal(b1-3)GlcNAc(b1-2)Man(a1-3)[Fuc(a1-2)[GalNAc(a1-3)]Gal(b1-3)GlcNAc(b1-2)Man(a1-6)]Man(b1-4)GlcNAc(b1-4)[Fuc(a1-6)]GlcNAc", "outline": "as §1"}, "[5]": {"target": "Fuc(a1-2)[GalNAc(a1-3)]Gal(b1-3)GlcNAc(b1-3)GalNAc", "outline": "as §1"}, "[6]": {"target": "Fuc(a1-2)[GalNAc(a1-3)]Gal(b1-3)GlcNAc(b1-6)GalNAc", "outline": "as §1"}, "[7]": {"target": "Fuc(a1-2)[GalNAc(a1-3)]Gal(b1-4)Glc", "outline": "as §1"}, "[8]": {"target": "Fuc(a1-2)[GalNAc(a1-3)]Gal(b1-4)GlcNAc", "outline": "as §1"}, "[9]": {"target": "Fuc(a1-2)[GalNAc(a1-3)]Gal(b1-4)GlcNAc(b1-2)Man", "outline": "as §1"}, "[10]": {"target": "Fuc(a1-2)[GalNAc(a1-3)]Gal(b1-4)GlcNAc(b1-2)Man(a1-3)[Fuc(a1-2)[GalNAc(a1-3)]Gal(b1-4)GlcNAc(b1-2)Man(a1-6)]Man(b1-4)GlcNAc(b1-4)GlcNAc", "outline": "as §1"}, "[11]": {"target": "Fuc(a1-2)[GalNAc(a1-3)]Gal(b1-4)GlcNAc(b1-2)Man(a1-3)[Fuc(a1-2)[GalNAc(a1-3)]Gal(b1-4)GlcNAc(b1-2)Man(a1-6)]Man(b1-4)GlcNAc(b1-4)[Fuc(a1-6)]GlcNAc", "outline": "as §1"}, "[12]": {"target": "Fuc(a1-2)[GalNAc(a1-3)]Gal(b1-4)GlcNAc(b1-3)Gal(b1-4)GlcNAc", "outline": "as §1"}, "[13]": {"target": "Fuc(a1-2)[GalNAc(a1-3)]Gal(b1-4)GlcNAc(b1-3)Gal(b1-4)GlcNAc(b1-3)Gal(b1-4)GlcNAc", "outline": "as §1"}, "[14]": {"target": "Fuc(a1-2)[GalNAc(a1-3)]Gal(b1-4)GlcNAc(b1-3)GalNAc", "outline": "as §1"}, "[15]": {"target": "Fuc(a1-2)[GalNAc(a1-3)]Gal(b1-4)GlcNAc(b1-3)[Fuc(a1-2)[GalNAc(a1-3)]Gal(b1-4)GlcNAc(b1-6)]GalNAc", "outline": "as §1"}, "[16]": {"target": "Fuc(a1-2)[GalNAc(a1-3)]Gal(b1-4)GlcNAc(b1-6)GalNAc", "outline": "as §1"}, "[17]": {"target": "Fuc(a1-2)[GalNAc(a1-3)]Gal(b1-4)[Fuc(a1-3)]GlcNAc", "outline": "as §1"}, "[18]": {"target": "Fuc(a1-2)[GalNAc(a1-3)]Gal(b1-4)[Fuc(a1-3)]GlcNAc(b1-3)GalNAc", "outline": "as §1"}, "[19]": {"target": "Fuc(a1-2)[GalNAc(a1-4)]Gal(b1-4)GlcNAc", "outline": "as §1"}, "[20]": {"target": "Fuc(a1-2)[GalNAc(b1-3)]Gal", "outline": "as §1"}, "[21]": {"target": "Fuc(a1-3)GlcNAc", "outline": "as §1"}, "[22]": {"target": "Fuc(a1-3)[Gal(b1-4)]Glc6S", "outline": "as §1"}, "[23]": {"target": "Fuc(a1-3)[Gal(b1-4)]GlcNAc", "outline": "as §1"}, "[24]": {"target": "Fuc(a1-3)[Gal(b1-4)]GlcNAc(b1-2)Man", "outline": "as §1"}, "[25]": {"target": "Fuc(a1-3)[Gal(b1-4)]GlcNAc(b1-2)Man(a1-3)[Fuc(a1-3)[Gal(b1-4)]GlcNAc(b1-2)Man(a1-6)]Man(b1-4)GlcNAc(b1-4)GlcNAc", "outline": "as §1"}, "[26]": {"target": "Fuc(a1-3)[Gal(b1-4)]GlcNAc(b1-2)Man(a1-3)[Fuc(a1-3)[Gal(b1-4)]GlcNAc(b1-2)Man(a1-6)]Man(b1-4)GlcNAc(b1-4)[Fuc(a1-6)]GlcNAc", "outline": "as §1"}, "[27]": {"target": "Fuc(a1-3)[Gal(b1-4)]GlcNAc(b1-3)Gal(b1-3)[Fuc(a1-4)]GlcNAc", "outline": "as §1"}, "[28]": {"target": "Fuc(a1-3)[Gal(b1-4)]GlcNAc(b1-3)Gal(b1-4)[Fuc(a1-3)]GlcNAc", "outline": "as §1"}, "[29]": {"target": "Fuc(a1-3)[Gal(b1-4)]GlcNAc(b1-3)Gal(b1-4)[Fuc(a1-3)]GlcNAc(b1-3)Gal(b1-4)[Fuc(a1-3)]GlcNAc", "outline": "as §1"}, "[30]": {"target": "Fuc(a1-3)[Gal(b1-4)]GlcNAc(b1-3)GalNAc", "outline": "as §1"}, "[31]": {"target": "Fuc(a1-3)[Gal(b1-4)]GlcNAc(b1-4)Gal(b1-4)[Fuc(a1-3)]GlcNAc", "outline": "as §1"}, "[32]": {"target": "Fuc(a1-3)[Gal(b1-4)]GlcNAc(b1-4)Gal(b1-4)[Fuc(a1-3)]GlcNAc(b1-4)Gal(b1-4)[Fuc(a1-3)]GlcNAc", "outline": "as §1"}, "[33]": {"target": "Fuc(a1-3)[Gal(b1-4)]GlcNAc(b1-6)GalNAc", "outline": "as §1"}, "[34]": {"target": "Fuc(a1-3)[Gal(b1-4)]GlcNAc(b1-6)[Gal(b1-3)GlcNAc(b1-3)]Gal(b1-4)Glc", "outline": "as §1"}, "[35]": {"target": "Fuc(a1-3)[Gal(b1-4)]GlcNAc(b1-6)[Neu5Ac(a2-3)Gal(b1-3)]GalNAc", "outline": "as §1"}, "[36]": {"target": "Fuc(a1-3)[Gal(b1-4)]GlcNAc6S", "outline": "as §1"}, "[37]": {"target": "Fuc(a1-3)[Gal3S(b1-4)]Glc", "outline": "as §1"}, "[38]": {"target": "Fuc(a1-3)[Gal3S(b1-4)]GlcNAc", "outline": "as §1"}, "[39]": {"target": "Fuc(a1-3)[Gal3S(b1-4)]GlcNAc6S", "outline": "as §1"}, "[40]": {"target": "Fuc(a1-3)[GalNAc(b1-4)]GlcNAc", "outline": "as §1"}, "[41]": {"target": "Fuc(a1-3)[GalNAc(b1-4)]GlcNAc6S", "outline": "as §1"}, "[42]": {"target": "Fuc(a1-4)GlcNAc", "outline": "as §1"}, "[43]": {"target": "Fuc(b1-3)GlcNAc", "outline": "as §1"}, "[44]": {"target": "Gal(a1-2)Gal", "outline": "as §1"}, "[45]": {"target": "Gal(a1-3)Gal", "outline": "as §1"}},
  "note": "The list shows a part of the results.",
  "data": [
    {"binder": "B1", "values": [
      {"measurement": "glycan array binding signal (z-score)", "setting": "[1]", "result": -0.244},
      {"measurement": "glycan array binding signal (z-score)", "setting": "[2]", "result": 0.099},
      {"measurement": "glycan array binding signal (z-score)", "setting": "[3]", "result": -0.146},
      {"measurement": "glycan array binding signal (z-score)", "setting": "[4]", "result": -0.395},
      {"measurement": "glycan array binding signal (z-score)", "setting": "[5]", "result": 3.23},
      {"measurement": "glycan array binding signal (z-score)", "setting": "[6]", "result": 0.077},
      {"measurement": "glycan array binding signal (z-score)", "setting": "[7]", "result": 1.42},
      {"measurement": "glycan array binding signal (z-score)", "setting": "[8]", "result": -0.475},
      {"measurement": "glycan array binding signal (z-score)", "setting": "[9]", "result": -0.513},
      {"measurement": "glycan array binding signal (z-score)", "setting": "[10]", "result": 2.04},
      {"measurement": "glycan array binding signal (z-score)", "setting": "[11]", "result": -0.285},
      {"measurement": "glycan array binding signal (z-score)", "setting": "[12]", "result": -0.2},
      {"measurement": "glycan array binding signal (z-score)", "setting": "[13]", "result": 0.944},
      {"measurement": "glycan array binding signal (z-score)", "setting": "[14]", "result": -0.501},
      {"measurement": "glycan array binding signal (z-score)", "setting": "[15]", "result": -0.15},
      {"measurement": "glycan array binding signal (z-score)", "setting": "[16]", "result": -0.194},
      {"measurement": "glycan array binding signal (z-score)", "setting": "[17]", "result": -0.242},
      {"measurement": "glycan array binding signal (z-score)", "setting": "[18]", "result": 7.08},
      {"measurement": "glycan array binding signal (z-score)", "setting": "[19]", "result": -0.177},
      {"measurement": "glycan array binding signal (z-score)", "setting": "[20]", "result": -0.346},
      {"measurement": "glycan array binding signal (z-score)", "setting": "[21]", "result": -0.469},
      {"measurement": "glycan array binding signal (z-score)", "setting": "[22]", "result": 1.15},
      {"measurement": "glycan array binding signal (z-score)", "setting": "[23]", "result": 0.264},
      {"measurement": "glycan array binding signal (z-score)", "setting": "[24]", "result": -0.493},
      {"measurement": "glycan array binding signal (z-score)", "setting": "[25]", "result": 0.432},
      {"measurement": "glycan array binding signal (z-score)", "setting": "[26]", "result": 0.155},
      {"measurement": "glycan array binding signal (z-score)", "setting": "[27]", "result": -0.101},
      {"measurement": "glycan array binding signal (z-score)", "setting": "[28]", "result": -0.46},
      {"measurement": "glycan array binding signal (z-score)", "setting": "[29]", "result": -0.162},
      {"measurement": "glycan array binding signal (z-score)", "setting": "[30]", "result": 1.43},
      {"measurement": "glycan array binding signal (z-score)", "setting": "[31]", "result": -0.534},
      {"measurement": "glycan array binding signal (z-score)", "setting": "[32]", "result": 0.104},
      {"measurement": "glycan array binding signal (z-score)", "setting": "[33]", "result": 0.985},
      {"measurement": "glycan array binding signal (z-score)", "setting": "[34]", "result": -0.249},
      {"measurement": "glycan array binding signal (z-score)", "setting": "[35]", "result": 3.09},
      {"measurement": "glycan array binding signal (z-score)", "setting": "[36]", "result": 0.039},
      {"measurement": "glycan array binding signal (z-score)", "setting": "[37]", "result": 0.321},
      {"measurement": "glycan array binding signal (z-score)", "setting": "[38]", "result": -0.214},
      {"measurement": "glycan array binding signal (z-score)", "setting": "[39]", "result": 0.286},
      {"measurement": "glycan array binding signal (z-score)", "setting": "[40]", "result": 0.064},
      {"measurement": "glycan array binding signal (z-score)", "setting": "[41]", "result": -0.225},
      {"measurement": "glycan array binding signal (z-score)", "setting": "[42]", "result": -0.437},
      {"measurement": "glycan array binding signal (z-score)", "setting": "[43]", "result": -0.474},
      {"measurement": "glycan array binding signal (z-score)", "setting": "[44]", "result": -0.187},
      {"measurement": "glycan array binding signal (z-score)", "setting": "[45]", "result": -0.643}
    ]}
  ]
}
